# Sequences with one replicate were seen in a single cluster, so their values are uncertain.
# Tested on: ATP
# Assay: switch fluorescence ratio, 500 uM ATP over buffer (Cy3 cluster intensity, sum of 5 cycles each) (fold (ratio)); higher = stronger signal-on switching upon ATP binding; sequences stand for … in TCGTCGGCAGCGTCAGATGTGTATAAGAGACAGTTTTTTTTTTTTTTTTTTTTTTTTT…TC
# Conditions: aptamer strand: ATP DNA aptamer (quencher-CACCTGGGGGAGTATTGCGGAGGAAGG + anchor), 100 nM annealed; ATP concentration: 500 uM; one replicate
# In short: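 Exposure to 500 uM ATP lasted 15 min at 22 °C before imaging, and a selection-buffer image was taken beforehand, for Cy3-labelled switching-strand clusters on a modified Illumina MiSeq flow-cell annealed to 100 nM quencher-labelled ATP aptamer. Five buffer/ATP cycles were run with NaOH stripping and re-annealing between them. The fluorescence ratio per cluster is summed target-cycle over summed buffer-cycle Cy3 intensity, averaged per switch-domain sequence. Clusters outside 100-1000 RFU were excluded.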
row,Sequence,switch fluorescence ratio
1,CCAACGGGGC,1.37
2,CCAACTAGAC,1.67
3,CCAACTCTAG,1.04
4,CCAAGGAAG,1.01
5,CCAAGGCAAG,4
6,CCAAGGGGAA,1.03
7,CCAAGGTTAT,1.01
8,CCAAGTATA,1.04
9,CCAAGTCGGG,0.956
10,CCAAGTGGTA,1.01
11,CCAATCAAGG,1.01
12,CCAATCAATA,1.3
13,CCAATCAGAC,1.1
14,CCAATCGATT,0.969
15,CCAATCGGCA,1.07
16,CCAATGAGAG,0.954
17,CCAATGGGGT,1.04
18,CCAATTAGGG,0.967
19,CCAATTCGAA,0.991
20,CCAATTTTGT,0.969
21,CCACAAAGTG,1.05
22,CCACAATCGG,1.31
23,CCACAGAGAT,1.09
24,CCACATGAGC,1.05
25,CCACCAGTCA,1.2
26,CCACCATGAG,1.07

row,Sequence,switch fluorescence ratio
1,CCACCCCAGC,1.24
2,CCACCCGGGT,1.06
3,CCACCTGAGC,1.09
4,CCACCTTTCG,1.19
5,CCACGAGAGA,1.04
6,CCACGAGGG,1.08
7,CCACGGATAT,1.13
8,CCACGTTATT,1.15
9,CCACTAGCTA,1.59
10,CCACTCCGTT,1.24
11,CCACTCGTGG,1.03
12,CCACTTGGGT,1.03
13,CCACTTGTTT,1.03
14,CCACTTTTGG,1.01
15,CCAGAAGTCA,1.01
16,CCAGAGGTGC,1.76
17,CCAGAGTAAT,1.02
18,CCAGATGGCT,1.03
19,CCAGCACGTG,0.984
20,CCAGCTTCGT,1.02
21,CCAGGAATTA,1.07
22,CCAGGACCAA,1.07
23,CCAGGACTCG,0.987
24,CCAGGATCAC,1.09
25,CCAGGCAACT,1.26
26,CCAGGCATGA,1.09

row,Sequence,switch fluorescence ratio
1,CCAGGGATGA,1.01
2,CCAGGGGTT,1.68
3,CCAGGGTTA,1.01
4,CCAGGTACGA,1.15
5,CCAGGTTACG,1.05
6,CCAGTATGAG,1.05
7,CCAGTCACAC,1.09
8,CCAGTGCTGT,1.01
9,CCAGTGGTGT,1.22
10,CCAGTTCCTG,0.997
11,CCATAAATTA,1.01
12,CCATAACGGA,0.986
13,CCATAAGAGC,1.01
14,CCATAAGGCG,1.02
15,CCATAATATC,1.26
16,CCATAATCTG,1.01
17,CCATAATTCA,0.987
18,CCATAGAGTC,1.04
19,CCATAGGGTG,1.56
20,CCATATCGTC,1.07
21,CCATATGGGT,1.04
22,CCATCACAAG,1.05
23,CCATCACTTC,1.05
24,CCATCTGGAC,1.04
25,CCATCTTGGT,1.03
26,CCATCTTTCG,0.967

row,Sequence,switch fluorescence ratio
1,CCATGAGAAA,1.04
2,CCATGCTGAA,0.974
3,CCATGGAAA,0.972
4,CCATGGCCCT,0.977
5,CCATGTAGGC,1.03
6,CCATTAAAAT,1.01
7,CCATTCCGGA,1.02
8,CCATTCGAGT,1.03
9,CCATTCGGGC,1.03
10,CCATTGAACG,1.05
11,CCATTGGAAG,0.97
12,CCATTGGGGC,0.884
13,CCATTTTCAC,1
14,CCATTTTGAG,1
15,CCCAAAATGG,1.05
16,CCCAACCCAA,1.2
17,CCCAACTTGG,0.991
18,CCCACACAAT,2.72
19,CCCACCCCCC,1.48
20,CCCACCCTAG,1.05
21,CCCACTCGGG,1.02
22,CCCACTTCTT,1.03
23,CCCAGCAGGA,1.24
24,CCCAGCCATC,2.27
25,CCCAGTTCAC,1.05
26,CCCATAAACC,1.01

row,Sequence,switch fluorescence ratio
1,CCCATATTAT,0.963
2,CCCATCCCAG,1.14
3,CCCATGGTGA,1.12
4,CCCATTCGT,1.02
5,CCCATTGCGC,1.03
6,CCCCAAACAT,1.01
7,CCCCAAAGG,1.63
8,CCCCAATTTA,1.02
9,CCCCAGTGTA,4.06
10,CCCCCAGGTC,2.38
11,CCCCCCATGC,2.19
12,CCCCCCCACT,1.13
13,CCCCCTGCAG,2.51
14,CCCCGAGCGT,1.67
15,CCCCGAGGA,1.09
16,CCCCGATCC,1.29
17,CCCCGGTCGT,1.07
18,CCCCGTCGCC,1.08
19,CCCCGTGGGC,1.55
20,CCCCTAAGCG,1.08
21,CCCGCATAAT,4.86
22,CCCGCCGGCA,1.17
23,CCCGCCTTAA,2.31
24,CCCGGAA,1.15
25,CCCGGACTGT,1.01
26,CCCGGAGTCG,0.984

row,Sequence,switch fluorescence ratio
1,CCCGGATTAT,1.08
2,CCCGGCACAA,1.68
3,CCCGGCAGAG,1.07
4,CCCGGCATC,1.06
5,CCCGGGTTGC,1.24
6,CCCGGTTAGG,1.04
7,CCCGTATCGA,0.994
8,CCCGTTCGAA,1.01
9,CCCGTTCGTC,1.02
10,CCCGTTGCCC,1.06
11,CCCTAACACC,1.1
12,CCCTAGCGCG,1.01
13,CCCTAGTAAG,1.04
14,CCCTATACGG,1.17
15,CCCTCGTTTT,1.08
16,CCCTCTTAAA,1.1
17,CCCTGAGGCC,0.927
18,CCCTGCCCGC,1.78
19,CCCTGCGTAG,1.13
20,CCCTTAAGGC,1
21,CCCTTAGAGT,0.997
22,CCCTTAGTAG,0.978
23,CCCTTGGATG,1.03
